Data as given in the supplement of paper PMC11417369.
± gives the standard deviation of the averaged measurements. The list shows a part of the results.

Test system: PfAP2-G AP2 domain (GST-tagged)
Assay: gcPBM binding intensity (ln(normalized median fluorescence intensity)); higher = stronger DNA binding
Procedure, shortened: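 Binding intensity is the highest Masliner-normalised natural-log median intensity over replicate spots in either probe orientation. To obtain it, GST-tagged P. falciparum DNA-binding domains made in E. coli were incubated for 1 h on an Agilent 4 × 180k array of primer-extended double-stranded 36-bp intergenic genomic probes plus negative controls. Detection used Alexa488 anti-GST antibody with scanning at 488 nm.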

| Sequence | gcPBM binding intensity (ln) |
| --- | --- |
| TATTAATATTTACACACATGCGCACACATAAATAAA [TGCATGCA_site609] | 10.7 ± 0.45 |
| ATTAAATGATTCATATGTACATAAATAAATAAATAT [XGTACX_site2249] | 11.2 ± 0.67 |
| GTACAGATATTGTACATACACACCTATATAAATATC [CACACA_site5739] | 11.2 ± 0.81 |
| TAAATCCGCAGGCACACACACATATTAAGAAAAAAA [CACACA_site6061] | 10.1 ± 0.31 |
| ATGAAAAAACATAATTGTACAAAAGTTGGATTCGAT [XGTACX_site7732] | 10.9 ± 0.39 |
| ATCATCACATAAGAAAATAGATAAAAAAAAAAAAAT [XGTACX_negctrl_site589] | 9.66 ± 0.12 |
| TTTTTTTTTTTTGTCACACACCTTCATAAGAAAAAA [CACACA_site4779] | 10.2 ± 0.4 |
| TGGGAACAATATATTTGTACTTAAATAAATAAAAAA [XGTACX_site6762] | 11.1 ± 0.64 |
| GAACAAAATGATAGAAGTACAAATATTTATTTTGTT [XGTACX_site7146] | 11.2 ± 0.67 |
| TATATTTATAAGTGTACACATTATATAAATCCCTAT [CACACA_site6122] | 11.7 ± 1.1 |
| AAAGAGAAACAAAATTGTACATTATATTGTAGACGT [XGTACX_site976] | 10.8 ± 0.35 |
| TATACAGACAGACACACACACATATATAAATATGTA [CACACA_site6912] | 10.2 ± 0.37 |
| ATTATTATTTTTAACTGTACATAGATATAGATATCC [XGTACX_site8714] | 10.8 ± 0.54 |
| TACAATATTTCGAGCTTGCACTTTTATTAAGTAAAT | 10.06 ± 0.085 |
| TATCTGTATTTGTATACACACAAATGTATTTATTTA [CACACA_site4830] | 10.09 ± 0.092 |
| TGTATGTTATATACAACACACAAAAAAAAACAAGTT [CACACA_site301] | 10 ± 0.057 |
| AACTTTTATACGGATACACACAAAAAAAAATAAAAA [CACACA_site6547] | 10.5 ± 0.45 |
| TAAGAAAAATATATATGTACACATATATATATATAT [XGTACX_site8542] | 11.4 ± 0.89 |
| TATATTTAACATACTTTTTTTTTTTTTTTTTTTTTT [CACACA_negctrl_site938] | 10.9 ± 0.45 |
| ATGTGTATACTAAGAACACACAAGTTACTTGGTGTT [CACACA_site6864] | 9.91 ± 0.085 |
| TATTTAAAAGATGAAAGTACACATTTAATTACATTT [XGTACX_site3781] | 11.3 ± 0.92 |
| TAATTAGCATAATACACATGCATACATTTATATATA [TGCATGCA_site542] | 9.75 ± 0.099 |
| TACATATATCTATGTGTGCACTTATTTCCGGACAAA | 11 ± 0.6 |

| Sequence | gcPBM binding intensity (ln) |
| --- | --- |
| AAAAAAAAAAAACATACACACAAGAACAAAATATGA [CACACA_site3002] | 9.865 ± 0.092 |
| AGTCTTTTACATTGCACACACATTTCTTTCCTTTTG [CACACA_site2988] | 10.3 ± 0.049 |
| AATAAATTCATGAATTGTACGTAATGATAACATGAA [XGTACX_site2591] | 11.3 ± 0.75 |
| TTTTTATTCCAGTATTCACACACGAATAACCACATA [CACACA_site1897] | 10.3 ± 0.31 |
| ATTTTCTTTTTTAAACGTACACATATTAAATATATA [XGTACX_site7773] | 11.5 ± 1 |
| ATATATATGTTTTTATGTACATATTTTTCTCCTTCA [XGTACX_site5899] | 11.3 ± 0.69 |
| TTTGGAAAGCGTGATTTTTGACAAACACAAAAAAAA [CACACA_negctrl_site651] | 10.1 ± 0.13 |
| TTATAACTTTTCACAAGTACATATATATATGTATAA [XGTACX_site2306] | 11.2 ± 0.79 |
| ATTATTTTATGAGACATAAAAAAAAAAAAAAAAAAA [CACACA_negctrl_site1067] | 9.73 ± 0.51 |
| AGATGAGAGATATATACACACAATAATACCTATTTA [CACACA_site6542] | 9.93 ± 0.085 |
| TAGATTATTATACTAGTGCAAATTATTTAAGAAAAA | 9.94 ± 0.2 |
| AAAAAAAAAAAGTGCACACATAAAAATATGATCTAA [CACACA_site572] | 10.8 ± 0.67 |
| TAAATTTTTCTAAGTGCATGTTAATTTTTCAATTTA [TGCATGCA_site906] | 9.87 ± 0.13 |
| ATTTCCTTGAATGTTGCATGCTGTATTTTAATTAAA [TGCATGCA_site280] | 10.06 ± 0.092 |
| AAAAAAAGGAAATTTACACACACATATAATATACAT [CACACA_site3297] | 9.965 ± 0.021 |
| ATATTATTTATAAAAGTGCAAAAATCACTTCTTTTA [GTGCAC_site9656] | 10.1 ± 0.2 |
| TTTAAAAAGTTATGAAGTACATATATATATATATAT [XGTACX_site2188] | 11.2 ± 0.87 |
| TAATATCGTATATGAGTGCAATATTTTAGATTTTGA | 9.91 ± 0.16 |
| AATATATCAAAAATGATGACATAAATATATTAATTT [GTGCAC_negctrl_site530] | 9.59 ± 0.23 |
| TGCACGCACAGACACACACACAACTAAAAAATAATG [CACACA_site7250] | 10.5 ± 0.42 |
| AAAAAAAGGTAAAATTGTACATACGCACAAAAATAT [XGTACX_site2887] | 11 ± 0.63 |
| AACTTTAAACCCTGAACACACACAAATACACCCAAA [CACACA_site7971] | 10.8 ± 0.69 |
| TATATATATATATATATATATATATATGTATATATG [XGTACX_negctrl_site242] | 9.93 ± 0.61 |

| Sequence | gcPBM binding intensity (ln) |
| --- | --- |
| ATAATCCACAAGCACACACACACACCCATATATATA [CACACA_site1268] | 10.2 ± 0.19 |
| AAAATTATCGTTATATGTACGCATCTTAATACGTAT [XGTACX_site4063] | 11.5 ± 1 |
| GTCTATATATTTTAGGTGCAACGTAAATGTAAAAAT | 10.4 ± 0.3 |
| TAACTTTTTTTTTTTTTTTTTTAACTTTTATGTAAT [GTGCAC_negctrl_site156] | 9.54 ± 0.11 |
| CTTTTCTATTTTTTCGTGCACTATAAATATTTTAAT | 10.5 ± 0.31 |
| CACCAAAATATATGTACATATGATAAATGTGAATAT [GTGCAC_negctrl_site83] | 11.3 ± 0.79 |
| AAAAAAATTAATAATGTGCACTTTTTAGTATTTTTA [GTGCAC_site9744] | 10.2 ± 0.21 |
| AAATGTTAATTAAATGCATGTACAAAAGGAGCGAAT [TGCATGCA_site942] | 11.1 ± 0.43 |
| TTGTAGATATTTATATGTACGAATTTATAAATATAG [XGTACX_site3611] | 11.1 ± 0.76 |
| TTTTAAAAAAGAAAAAAAAAGGATCAGAGAAATATT [GTGCAC_negctrl_site79] | 10.04 ± 0.014 |
| TTATATTTATTTAATGAACACACGATATATTATTTT [CACACA_site1601] | 9.96 ± 0.13 |
| TTTGTCAACCAAAATTGTACAAATGTATTCCCAATA [XGTACX_site1350] | 10.8 ± 0.46 |
| TTATTTATCAAAAAATGTACAAAAATATATAAACAA [XGTACX_site940] | 10.9 ± 0.57 |
| TTTTTTTTTTTTGTCACACATATGGAATATATCTAT [CACACA_site5899] | 9.98 ± 0.35 |
| AAAAAAAAAAAAAAAGGTACACAAAACGGTATTATT [XGTACX_site7064] | 11.3 ± 0.68 |
| AACTCATAGGAGTGTGCACACAAAAAATTAAAAAAA [CACACA_site8996] | 10.7 ± 0.47 |
| CTCAAAAAATATGAACGTACAAAATAAGTAATGACA [XGTACX_site590] | 11.1 ± 0.45 |
| TTTTTTTTTTTTTTTGCACACATTTTAATTATTTTT [CACACA_site341] | 9.88 ± 0.38 |
| TTGTATCATATATTATGTACATATTGATTTATTACC [XGTACX_site12] | 11.2 ± 0.55 |
| CAAAGTATTATGATTACACACATGTGCTTTTTTCTT [CACACA_site163] | 9.85 ± 0.15 |
| AATAATAAATAAATGTGTACTTAAAAATATTATATT [XGTACX_site3005] | 11.5 ± 0.87 |
| TTATTGTTATTTGTTTGTACATAATATAATATATTA [XGTACX_site6477] | 11 ± 0.71 |
| TCCTATGATGATGATAGTACATATGAGTTCAAAAAA [XGTACX_site273] | 10.9 ± 0.54 |

| Sequence | gcPBM binding intensity (ln) |
| --- | --- |
| ACAATTAATCAAACAAGTACAAAATATATCCCTATT [XGTACX_site6223] | 11 ± 0.65 |
| AACCATACACAAATAAACATAGACACAGATACCTCC [CACACA_negctrl_site598] | 10 |
| AATATAAAAAAAAACAAAAAAAAAATTTTGGTTCAC [CACACA_negctrl_site1290] | 9.53 ± 0.18 |
| ATGTCCTATATTAGTACACACATGAAAATATAAATA [CACACA_site7497] | 11.6 ± 1.1 |
| AAAATTTTGGAACGTGCACACATATGTAATATATAT [CACACA_site9004] | 10.5 ± 0.24 |
| AATATGTGTATAGATAGTACACATGCTGATAATATA [XGTACX_site5941] | 11.2 ± 0.76 |
| AGTAGTCTGGAGAAATGTACACAGTATCTGGTAGCT [XGTACX_site4871] | 11.2 ± 0.69 |
| TTTTTAAAATATTTAACACACAATTATAATGCATAA [CACACA_site3932] | 10.1 ± 0.18 |
| ATTATACAAATTGAGGTGCATGAAACAAAATATGAA | 10.2 ± 0.18 |
| ATATTTTTTTTTTTATGTACTTATTTATAATTATTT [XGTACX_site5279] | 11.6 ± 0.95 |
| AGCTTGTAACAGTTTACACACTAATATTTATAAATT [CACACA_site6024] | 10.11 ± 0.028 |
| CTTATAAGAATACTAGTGCACATAATTTAACGAAAA | 10.4 ± 0.18 |
| TATTAATGATAAAAAAGTACATTATTATATGATATT [XGTACX_site4235] | 11.3 ± 0.95 |
| TACTTATTGTGATACTTATATTATTTTATGATTAAA [XGTACX_negctrl_site353] | 10.2 ± 0.035 |
| TATATTTATTTATATACACACATAATAAAAAATATA [CACACA_site6527] | 10.1 ± 0.38 |
| ATCATTTGCATACGCACACACACATAAAAAGAAAAA [CACACA_site355] | 10.4 ± 0.45 |
| TCTATCAAATTTGAAGGTACACATTTGAGATAATTA [XGTACX_site3797] | 11 ± 0.73 |
| TTTTTTTTTTTTTTTTCACACATTGTACTTTTTTAT [CACACA_site5193] | 11.6 ± 1.2 |
| TAAGTCATATAAATGTGTACATAAAAAAAAAAAATG [XGTACX_site1645] | 11.6 ± 1 |
| CATCTAAATTGTAGTTGTACACCTTAATCTTATTAC [XGTACX_site7547] | 11.7 ± 0.83 |
| TATTTTATCATTTGCACACGCACACCGACATAAAAA [CACACA_site4348] | 10.6 ± 0.43 |
